Data: the supplement of paper PMC10037445
± gives the standard deviation of the averaged measurements. Whole data set: some 2,900 compounds, median “NF-kB SEAP reporter activity, fold change vs agonist alone” near 0.99, cut for the highest 2% near 2.6. The list shows a part of the results.

Experiments:
[1] = tested on: RAW-Dual; assay: NF-kB SEAP reporter activity, fold change vs agonist alone; higher = enhanced NF-kB activity
In short: (§1)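 Library stock was pin-tooled at 50 nL into 384-well plates of RAW-Dual macrophages (50,000 cells/well, DMEM), followed 1 h later by a PRR agonist, and the cells were kept at 37 °C, 5% CO2. Supernatant collected after 20 hours was read for IRF by QuantiLuc luminescence and for NF-κB by QuantiBlue absorbance at 620 nm. Reporter activity is fold change over agonist-alone wells, and a well counted as cytotoxic when its IncuCyte confluency was below 70% of agonist controls in both mask sets.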

[2] = tested on: RAW-Dual; assay: NF-kB SEAP reporter activity, fold change vs agonist alone; cytotoxicity flag (confluency mask): not cytotoxic; higher = enhanced NF-kB activity
In short: as §1

[3] = tested on: RAW-Dual; assay: NF-kB SEAP reporter activity, fold change vs agonist alone; cytotoxicity flag (confluency mask): cytotoxic (confluency <70% of control); higher = enhanced NF-kB activity
In short: as §1

[4] = library stock concentration (final ~1000-fold dilution): 10 mM, cytotoxicity flag (confluency mask): not cytotoxic, agonist: Imiquimod (TLR7) […]
[5] = library stock concentration (final ~1000-fold dilution): 10 mM, cytotoxicity flag (confluency mask): not cytotoxic, agonist: MPLA (TLR4) […]
[6] = agonist: ODN 1826 (TLR9) 0.5 ug/mL
[7] = agonist: Pam2CSK4 (TLR2/6) 0.1 ug/mL
[8] = agonist: Pam3CSK4 (TLR2/1) 0.1 ug/mL

## NC(=O)c1cc(F)cc2c1C(=O)N(C1CCN(C3CCC(F)(F)CC3)CC1)C2
[1]; [4]
  NF-kB SEAP reporter activity: 1.12
[1]; [5]
  NF-kB SEAP reporter activity: 1.11

## NC(=O)c1cc(F)cc2c1C(=O)N(C1CCN(C3CCC(F)(F)CC3)CC1)C2 (library stock concentration (final ~1000-fold dilution): 10 mM)
[2]; agonist: LPS (TLR4) 0.1 ug/mL
  NF-kB SEAP reporter activity: 1.2
[2]; [6]
  NF-kB SEAP reporter activity: 0.868
[2]; [7]
  NF-kB SEAP reporter activity: 1.15
[2]; [8]
  NF-kB SEAP reporter activity: 1.45

## CC(C)=CCC[C@](C)(O[C@@H]1O[C@H](CO)[C@@H](O)[C@H](O)[C@H]1O)[C@H]1CC[C@]2(C)[C@@H]1[C@H](O)C[C@@H]1[C@@]3(C)CC[C@H](O)C(C)(C)[C@@H]3[C@@H](O[C@@H]3O[C@H](CO)[C@@H](O)[C@H](O)[C@H]3O)C[C@]12C (library stock concentration (final ~1000-fold dilution): 10 mM)
[2]; agonist: LPS (TLR4) 0.1 ug/mL
  NF-kB SEAP reporter activity: 1.08
[2]; [6]
  NF-kB SEAP reporter activity: 1.06
[2]; [7]
  NF-kB SEAP reporter activity: 1.19
[2]; [8]
  NF-kB SEAP reporter activity: 1.12

## CC(C)=CCC[C@](C)(O[C@@H]1O[C@H](CO)[C@@H](O)[C@H](O)[C@H]1O)[C@H]1CC[C@]2(C)[C@@H]1[C@H](O)C[C@@H]1[C@@]3(C)CC[C@H](O)C(C)(C)[C@@H]3[C@@H](O[C@@H]3O[C@H](CO)[C@@H](O)[C@H](O)[C@H]3O)C[C@]12C
[1]; [4]
  NF-kB SEAP reporter activity: 0.936
[1]; [5]
  NF-kB SEAP reporter activity: 1.01

## O=C(CCc1ccc(O)cc1)c1c(O)cccc1OC1OC(CO)C(O)C(O)C1O (stereo unspecified) (library stock concentration (final ~1000-fold dilution): 10 mM)
[2]; agonist: LPS (TLR4) 0.1 ug/mL
  NF-kB SEAP reporter activity: 1.01
[2]; [6]
  NF-kB SEAP reporter activity: 0.961
[2]; [7]
  NF-kB SEAP reporter activity: 1.01
[2]; [8]
  NF-kB SEAP reporter activity: 0.915

## O=C(CCc1ccc(O)cc1)c1c(O)cccc1OC1OC(CO)C(O)C(O)C1O (stereo unspecified)
[1]; [4]
  NF-kB SEAP reporter activity: 0.97
[1]; [5]
  NF-kB SEAP reporter activity: 1.1

## Nc1c2c(nc3ccccc13)CCCC2
[1]; [4]
  NF-kB SEAP reporter activity: 1.17
[1]; [5]
  NF-kB SEAP reporter activity: 1.01

## Nc1c2c(nc3ccccc13)CCCC2 (library stock concentration (final ~1000-fold dilution): 10 mM)
[2]; agonist: LPS (TLR4) 0.1 ug/mL
  NF-kB SEAP reporter activity: 1.3
[2]; [6]
  NF-kB SEAP reporter activity: 0.327
[2]; [7]
  NF-kB SEAP reporter activity: 1.03
[2]; [8]
  NF-kB SEAP reporter activity: 0.98

## O=c1sn(-c2cccc3ccccc23)c(=O)n1Cc1ccccc1
[1]; library stock concentration (final ~1000-fold dilution): 10 mM, cytotoxicity flag (confluency mask): cytotoxic (confluency <70% of control), agonist: Imiquimod (TLR7) […]
  NF-kB SEAP reporter activity: 0.75
[1]; library stock concentration (final ~1000-fold dilution): 10 mM, cytotoxicity flag (confluency mask): cytotoxic (confluency <70% of control), agonist: MPLA (TLR4) […]
  NF-kB SEAP reporter activity: 0.747

## O=c1sn(-c2cccc3ccccc23)c(=O)n1Cc1ccccc1 (library stock concentration (final ~1000-fold dilution): 10 mM)
[3]; agonist: LPS (TLR4) 0.1 ug/mL
  NF-kB SEAP reporter activity: 0.547
[3]; [6]
  NF-kB SEAP reporter activity: 0.455
[3]; [7]
  NF-kB SEAP reporter activity: 0.528
[3]; [8]
  NF-kB SEAP reporter activity: 0.893

## C/C(=C(\CCOP(=O)(O)O)SC(=O)c1ccccc1)N(C=O)Cc1cnc(C)nc1N
[1]; [4]
  NF-kB SEAP reporter activity: 0.803
[1]; [5]
  NF-kB SEAP reporter activity: 0.983

## C/C(=C(\CCOP(=O)(O)O)SC(=O)c1ccccc1)N(C=O)Cc1cnc(C)nc1N (library stock concentration (final ~1000-fold dilution): 10 mM)
[2]; agonist: LPS (TLR4) 0.1 ug/mL
  NF-kB SEAP reporter activity: 0.998
[2]; [6]
  NF-kB SEAP reporter activity: 0.99
[2]; [7]
  NF-kB SEAP reporter activity: 1.09
[2]; [8]
  NF-kB SEAP reporter activity: 0.98

## CCN(CC)C(=S)SSC(=S)N(CC)CC (library stock concentration (final ~1000-fold dilution): 10 mM)
[2]; agonist: LPS (TLR4) 0.1 ug/mL
  NF-kB SEAP reporter activity: 1.74
[2]; [6]
  NF-kB SEAP reporter activity: 1.13
[2]; [7]
  NF-kB SEAP reporter activity: 0.688
[2]; [8]
  NF-kB SEAP reporter activity: 0.686

## CCN(CC)C(=S)SSC(=S)N(CC)CC
[1]; [4]
  NF-kB SEAP reporter activity: 2.24
[1]; [5]
  NF-kB SEAP reporter activity: 1.43

## O=C1C(=Cc2cccnc2)C(=O)c2ccccc21
[1]; [5]
  NF-kB SEAP reporter activity: 1.03

## O=C1C(=Cc2cccnc2)C(=O)c2ccccc21 (library stock concentration (final ~1000-fold dilution): 10 mM)
[2]; agonist: LPS (TLR4) 0.1 ug/mL
  NF-kB SEAP reporter activity: 0.821
[2]; [6]
  NF-kB SEAP reporter activity: 0.883
[2]; [7]
  NF-kB SEAP reporter activity: 1.08
[2]; [8]
  NF-kB SEAP reporter activity: 0.99

## COc1ccc(C(=O)O)cc1O (library stock concentration (final ~1000-fold dilution): 10 mM)
[2]; agonist: LPS (TLR4) 0.1 ug/mL
  NF-kB SEAP reporter activity: 1.41
[2]; [6]
  NF-kB SEAP reporter activity: 0.929
[2]; [7]
  NF-kB SEAP reporter activity: 1.19
[2]; [8]
  NF-kB SEAP reporter activity: 1.02

## COc1ccc(C(=O)O)cc1O
[1]; [5]
  NF-kB SEAP reporter activity: 1.01

## O=C(CCCCCN1C(=O)c2cccc3cccc(c23)C1=O)NO (library stock concentration (final ~1000-fold dilution): 10 mM)
[3]; agonist: LPS (TLR4) 0.1 ug/mL
  NF-kB SEAP reporter activity: 3.67
[3]; [6]
  NF-kB SEAP reporter activity: 2.57

## COc1cc2nc(N3CCN(C(=O)C4CCCO4)CC3)nc(N)c2cc1OC.Cl.O.O (stereo unspecified) (library stock concentration (final ~1000-fold dilution): 10 mM)
[2]; agonist: LPS (TLR4) 0.1 ug/mL
  NF-kB SEAP reporter activity: 1.17
[2]; [6]
  NF-kB SEAP reporter activity: 1.21
[2]; [7]
  NF-kB SEAP reporter activity: 1.05
[2]; [8]
  NF-kB SEAP reporter activity: 1.19

## COc1cc2nc(N3CCN(C(=O)C4CCCO4)CC3)nc(N)c2cc1OC.Cl.O.O (stereo unspecified)
[1]; [4]
  NF-kB SEAP reporter activity: 1.09
[1]; [5]
  NF-kB SEAP reporter activity: 1.02

## c1ccc(-c2nn3c(c2-c2ccnc4cc(OCCN5CCOCC5)ccc24)CCC3)nc1
[1]; library stock concentration (final ~1000-fold dilution): 2 mM, cytotoxicity flag (confluency mask): not cytotoxic, agonist: Imiquimod (TLR7) […]
  NF-kB SEAP reporter activity: 0.793
[1]; library stock concentration (final ~1000-fold dilution): 2 mM, cytotoxicity flag (confluency mask): not cytotoxic, agonist: MPLA (TLR4) […]
  NF-kB SEAP reporter activity: 1.27

## c1ccc(-c2nn3c(c2-c2ccnc4cc(OCCN5CCOCC5)ccc24)CCC3)nc1 (library stock concentration (final ~1000-fold dilution): 2 mM)
[2]; agonist: LPS (TLR4) 0.1 ug/mL
  NF-kB SEAP reporter activity: 2.87
[2]; [6]
  NF-kB SEAP reporter activity: 1.07
[2]; [7]
  NF-kB SEAP reporter activity: 1.05
[2]; [8]
  NF-kB SEAP reporter activity: 1.01

## O=C(O)Cn1nnc(-c2cc(N3CCC(Oc4cc(F)ccc4Br)CC3)no2)n1
[1]; [4]
  NF-kB SEAP reporter activity: 0.988
[1]; [5]
  NF-kB SEAP reporter activity: 1.2

## O=C(O)Cn1nnc(-c2cc(N3CCC(Oc4cc(F)ccc4Br)CC3)no2)n1 (library stock concentration (final ~1000-fold dilution): 10 mM)
[2]; agonist: LPS (TLR4) 0.1 ug/mL
  NF-kB SEAP reporter activity: 1.16
[2]; [6]
  NF-kB SEAP reporter activity: 1.18
[2]; [7]
  NF-kB SEAP reporter activity: 1.2
[2]; [8]
  NF-kB SEAP reporter activity: 0.974

## O=C(Nc1cccc(Br)c1)c1cccc(S(=O)(=O)N2CCCCCC2)c1 (library stock concentration (final ~1000-fold dilution): 10 mM)
[2]; agonist: LPS (TLR4) 0.1 ug/mL
  NF-kB SEAP reporter activity: 0.803
[2]; [6]
  NF-kB SEAP reporter activity: 1.79
[2]; [7]
  NF-kB SEAP reporter activity: 1.02
[2]; [8]
  NF-kB SEAP reporter activity: 0.939

## O=C(Nc1cccc(Br)c1)c1cccc(S(=O)(=O)N2CCCCCC2)c1
[1]; [4]
  NF-kB SEAP reporter activity: 1.56
[1]; [5]
  NF-kB SEAP reporter activity: 1.26

## CC(C)n1c(=O)n(C)c2cnc3cc(F)c(-c4ccc(OCCCN5CCCCC5)nc4)cc3c21
[1]; [4]
  NF-kB SEAP reporter activity: 0.846
[1]; [5]
  NF-kB SEAP reporter activity: 1.02

## CC(C)n1c(=O)n(C)c2cnc3cc(F)c(-c4ccc(OCCCN5CCCCC5)nc4)cc3c21 (library stock concentration (final ~1000-fold dilution): 10 mM)
[2]; agonist: LPS (TLR4) 0.1 ug/mL
  NF-kB SEAP reporter activity: 0.962
[2]; [6]
  NF-kB SEAP reporter activity: 0.233
[2]; [7]
  NF-kB SEAP reporter activity: 0.903
[2]; [8]
  NF-kB SEAP reporter activity: 0.978

## Nc1ccc(C(=O)O)c(O)c1 (library stock concentration (final ~1000-fold dilution): 10 mM)
[2]; agonist: LPS (TLR4) 0.1 ug/mL
  NF-kB SEAP reporter activity: 1.11 ± 0.023
[2]; [6]
  NF-kB SEAP reporter activity: 0.937 ± 0.018
[2]; [7]
  NF-kB SEAP reporter activity: 1.07 ± 0.031
[2]; [8]
  NF-kB SEAP reporter activity: 1.15 ± 0.18

## Nc1ccc(C(=O)O)c(O)c1
[1]; [4]
  NF-kB SEAP reporter activity: 0.93 ± 0.035
[1]; [5]
  NF-kB SEAP reporter activity: 1.03 ± 0.034

## CCOc1nc2cccc(C(=O)O)c2n1Cc1ccc(-c2ccccc2-c2nn[nH]n2)cc1
[1]; [4]
  NF-kB SEAP reporter activity: 0.9
[1]; [5]
  NF-kB SEAP reporter activity: 1.02

## CCOc1nc2cccc(C(=O)O)c2n1Cc1ccc(-c2ccccc2-c2nn[nH]n2)cc1 (library stock concentration (final ~1000-fold dilution): 10 mM)
[2]; agonist: LPS (TLR4) 0.1 ug/mL
  NF-kB SEAP reporter activity: 1.21
[2]; [6]
  NF-kB SEAP reporter activity: 0.995
[2]; [7]
  NF-kB SEAP reporter activity: 1.04
[2]; [8]
  NF-kB SEAP reporter activity: 1.15
